Measured values published in paper PMC5989226 (Nature Communications, 2018).
No constants are given. Whether binding was seen depends on the method and setting. For some of these results: In cells and extracts the contact can be indirect. Some entries that bind do so weakly or less than the wild type. For some of these results: Tags and fused reporters may be left off the sequences shown. One block for each molecule: values may come before it.

Sequences of proteins named here, by UniProt entry; tags and fusion partners are left off.
UniProt O49686: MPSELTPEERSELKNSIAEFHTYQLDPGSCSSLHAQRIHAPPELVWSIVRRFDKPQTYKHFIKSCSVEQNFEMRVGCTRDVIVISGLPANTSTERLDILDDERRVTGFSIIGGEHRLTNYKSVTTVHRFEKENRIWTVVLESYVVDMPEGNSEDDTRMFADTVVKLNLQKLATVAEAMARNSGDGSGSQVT
UniProt O04719: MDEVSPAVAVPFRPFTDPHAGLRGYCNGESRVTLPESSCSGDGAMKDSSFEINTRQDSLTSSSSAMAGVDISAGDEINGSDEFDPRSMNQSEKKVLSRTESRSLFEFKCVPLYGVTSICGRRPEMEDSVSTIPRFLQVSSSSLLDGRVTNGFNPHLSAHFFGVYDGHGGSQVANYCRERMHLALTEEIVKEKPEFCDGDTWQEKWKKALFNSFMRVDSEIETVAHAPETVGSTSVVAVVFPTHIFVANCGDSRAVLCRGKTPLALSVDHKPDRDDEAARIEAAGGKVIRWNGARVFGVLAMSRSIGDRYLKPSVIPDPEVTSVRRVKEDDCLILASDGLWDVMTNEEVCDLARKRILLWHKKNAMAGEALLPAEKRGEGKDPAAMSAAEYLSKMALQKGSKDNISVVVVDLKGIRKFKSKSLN
UniProt P49597: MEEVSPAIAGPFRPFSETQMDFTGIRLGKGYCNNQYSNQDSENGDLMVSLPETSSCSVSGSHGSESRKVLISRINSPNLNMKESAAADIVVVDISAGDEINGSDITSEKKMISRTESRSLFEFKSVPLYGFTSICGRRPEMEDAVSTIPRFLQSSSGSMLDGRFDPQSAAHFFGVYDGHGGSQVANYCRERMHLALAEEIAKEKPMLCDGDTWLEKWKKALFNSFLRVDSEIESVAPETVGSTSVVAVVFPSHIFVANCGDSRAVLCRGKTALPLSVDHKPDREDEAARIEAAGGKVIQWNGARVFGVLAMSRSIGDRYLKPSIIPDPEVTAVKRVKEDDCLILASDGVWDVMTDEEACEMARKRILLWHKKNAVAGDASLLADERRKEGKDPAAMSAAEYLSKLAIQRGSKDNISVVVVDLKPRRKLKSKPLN

Key:
[1] = molecular target: T1, DOG1-Like 3 (DOGL3), yeast two-hybrid fusion (Arabidopsis) (UniProt Q58FV0); assay: two-hybrid; Matchmaker Gold, Y2H gold strain; fusions from pASGW-attR and pACTGW-attR (GAL4BD-DOG1 and GAL4AD-PP2Cs in Fig. 4a); growth on QDO/A plates, 7 days
T1 sequence: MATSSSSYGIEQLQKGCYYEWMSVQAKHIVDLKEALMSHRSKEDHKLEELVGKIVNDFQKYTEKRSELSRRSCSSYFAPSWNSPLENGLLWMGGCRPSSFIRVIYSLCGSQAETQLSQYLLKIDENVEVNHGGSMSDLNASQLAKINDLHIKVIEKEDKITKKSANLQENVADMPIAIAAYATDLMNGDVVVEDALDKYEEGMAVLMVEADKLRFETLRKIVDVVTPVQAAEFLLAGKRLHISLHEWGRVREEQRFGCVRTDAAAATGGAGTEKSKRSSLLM

[2] = molecular target: T2, GAL4BD-DOG1 (Arabidopsis) (UniProt A0SVK0); assay: as above
T2 sequence: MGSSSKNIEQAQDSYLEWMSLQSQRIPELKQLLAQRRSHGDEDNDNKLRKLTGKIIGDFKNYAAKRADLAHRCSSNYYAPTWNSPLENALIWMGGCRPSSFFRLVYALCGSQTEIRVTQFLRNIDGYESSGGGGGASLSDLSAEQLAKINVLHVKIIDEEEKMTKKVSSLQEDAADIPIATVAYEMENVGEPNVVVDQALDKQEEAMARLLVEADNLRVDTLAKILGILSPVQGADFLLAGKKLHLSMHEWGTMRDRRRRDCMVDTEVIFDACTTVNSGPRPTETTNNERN

HA-DOG1 (Arabidopsis) = molecular target: T3, HA-DOG1 (Arabidopsis) (UniProt A0SVK0); assay: co-IP; co-expression in N. benthamiana leaves; extraction buffer 50 mM Na-phosphate pH 7.4, 150 mM NaCl, 0.1% NP-40, 1 mM DTT; anti-HA matrix 3 h at 4 °C; blots with anti-GFP and anti-HA; leaves with or without 100 μM ABA or 50 μM hemin for 24 h
T3 sequence: T2 sequence

HA-PYR1 (Arabidopsis) = HA-PYR1 (Arabidopsis) (UniProt O49686); assay: as above
[3] = molecular target: T4, GAL4AD-AHG1 (Arabidopsis) (UniProt Q9FLI3); assay: two-hybrid; Matchmaker Gold, Y2H gold strain; fusions from pASGW-attR and pACTGW-attR (GAL4BD-DOG1 and GAL4AD-PP2Cs in Fig. 4a); growth on QDO/A plates, 7 days
T4 sequence: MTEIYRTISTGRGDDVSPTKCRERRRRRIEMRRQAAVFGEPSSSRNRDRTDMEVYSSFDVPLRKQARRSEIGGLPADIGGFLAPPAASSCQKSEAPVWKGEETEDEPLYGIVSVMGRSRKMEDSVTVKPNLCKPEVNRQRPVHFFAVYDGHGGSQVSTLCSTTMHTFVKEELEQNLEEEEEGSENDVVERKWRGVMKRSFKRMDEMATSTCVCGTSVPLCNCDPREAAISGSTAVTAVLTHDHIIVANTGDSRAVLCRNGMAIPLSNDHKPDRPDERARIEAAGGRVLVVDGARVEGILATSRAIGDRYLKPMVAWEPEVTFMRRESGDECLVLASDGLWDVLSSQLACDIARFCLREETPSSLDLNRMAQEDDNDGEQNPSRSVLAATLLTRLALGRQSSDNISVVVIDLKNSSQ

binding [1]: no binding
binding [2]: no binding
Molecule: GAL4AD-ABI2 (from UniProt O04719 1-423) (enzyme)

binding [1]: no binding
binding [2]: no binding
Molecule: GAL4AD-ABI1 (from UniProt P49597 1-434) (enzyme)

binding (HA-DOG1 (Arabidopsis)): binds
binding (HA-PYR1 (Arabidopsis)): no binding
B1: YFP-AHG1 (expressed in N. benthamiana) (enzyme, UniProt Q9FLI3 1-416)
chain: T4 sequence

binding [3]: binds
B2: TOPLESS (TPL), yeast two-hybrid fusion (protein, UniProt Q94AI7 1-1131)
chain: MSSLSRELVFLILQFLDEEKFKETVHKLEQESGFFFNMKYFEDEVHNGNWDEVEKYLSGFTKVDDNRYSMKIFFEIRKQKYLEALDKHDRPKAVDILVKDLKVFSTFNEELFKEITQLLTLENFRENEQLSKYGDTKSARAIMLVELKKLIEANPLFRDKLQFPTLRNSRLRTLINQSLNWQHQLCKNPRPNPDIKTLFVDHSCGPPNGARAPSPVNNPLLGGIPKAGGFPPLGAHGPFQPTASPVPTPLAGWMSSPSSVPHPAVSAGAIALGGPSIPAALKHPRTPPTNASLDYPSADSEHVSKRTRPMGISDEVNLGVNMLPMSFSGQAHGHSPAFKAPDDLPKTVARTLSQGSSPMSMDFHPIKQTLLLVGTNVGDIGLWEVGSRERLVQKTFKVWDLSKCSMPLQAALVKEPVVSVNRVIWSPDGSLFGVAYSRHIVQLYSYHGGEDMRQHLEIDAHVGGVNDISFSTPNKQLCVITCGDDKTIKVWDAATGVKRHTFEGHEAPVYSVCPHYKENIQFIFSTALDGKIKAWLYDNMGSRVDYDAPGRWCTTMAYSADGTRLFSCGTSKDGESFIVEWNESEGAVKRTYQGFHKRSLGVVQFDTTKNRYLAAGDDFSIKFWDMDAVQLLTAIDGDGGLQASPRIRFNKEGSLLAVSGNENVIKIMANSDGLRLLHTFENISSESSKPAINSIAAAAAAAATSAGHADRSANVVSIQGMNGDSRNMVDVKPVITEESNDKSKIWKLTEVSEPSQCRSLRLPENLRVAKISRLIFTNSGNAILALASNAIHLLWKWQRNERNATGKATASLPPQQWQPASGILMTNDVAETNPEEAVPCFALSKNDSYVMSASGGKISLFNMMTFKTMATFMPPPPAATFLAFHPQDNNIIAIGMDDSTIQIYNVRVDEVKSKLKGHSKRITGLAFSNVLNVLVSSGADAQLCVWNTDGWEKQRSKVLPLPQGRPNSAPSDTRVQFHQDQAHFLVVHETQLAIYETTKLECMKQWAVRESLAPITHATFSCDSQLVYASFMDATVCVFSSANLRLRCRVNPSAYLPASLSNSNVHPLVIAAHPQEPNMFAVGLSDGGVHIFEPLESEGKWGVAPPAENGSASGAPTAPSVGASASDQPQR
